No constants are given. Whether binding was seen depends on the method and setting. For part of these data: Binding seen in cells or lysates may run through a third protein. Some results given as binding are weak or reduced against the parent protein; the word gives no strength.

Sequences of proteins named here, by UniProt entry; tags and fusion partners are left off. A change or cut given only in a name is not applied to a line headed by its entry. A line that says so, or that is headed by a name, gives the form on record, which may keep a tag or linker.
UniProt Q99814: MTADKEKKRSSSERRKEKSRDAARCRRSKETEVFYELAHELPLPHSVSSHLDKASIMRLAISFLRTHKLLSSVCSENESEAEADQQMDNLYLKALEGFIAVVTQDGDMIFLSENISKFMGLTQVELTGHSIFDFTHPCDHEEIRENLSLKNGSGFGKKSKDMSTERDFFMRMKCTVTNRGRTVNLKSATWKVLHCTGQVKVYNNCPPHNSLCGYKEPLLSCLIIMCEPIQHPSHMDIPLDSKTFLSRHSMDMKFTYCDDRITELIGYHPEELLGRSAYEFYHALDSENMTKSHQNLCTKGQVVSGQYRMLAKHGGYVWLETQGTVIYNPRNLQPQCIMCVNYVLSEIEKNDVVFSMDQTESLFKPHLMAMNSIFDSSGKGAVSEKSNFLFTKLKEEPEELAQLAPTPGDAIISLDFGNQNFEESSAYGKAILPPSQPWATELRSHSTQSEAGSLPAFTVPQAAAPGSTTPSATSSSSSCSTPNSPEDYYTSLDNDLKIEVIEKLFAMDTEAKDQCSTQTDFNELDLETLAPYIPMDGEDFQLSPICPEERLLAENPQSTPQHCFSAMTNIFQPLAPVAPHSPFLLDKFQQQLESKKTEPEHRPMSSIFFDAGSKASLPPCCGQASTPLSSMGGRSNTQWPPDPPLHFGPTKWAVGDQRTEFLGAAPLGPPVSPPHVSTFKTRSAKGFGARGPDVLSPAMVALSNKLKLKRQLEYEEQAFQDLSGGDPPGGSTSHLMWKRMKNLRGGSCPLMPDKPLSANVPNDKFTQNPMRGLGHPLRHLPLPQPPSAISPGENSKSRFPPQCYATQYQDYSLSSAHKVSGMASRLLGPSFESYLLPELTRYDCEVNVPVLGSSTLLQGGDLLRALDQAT
ectopic arginine-substituted mutant (R3) human HIF-2α, V5- and HA-tagged, in HT1080 knockdown/rescue cells (Q99814, form named): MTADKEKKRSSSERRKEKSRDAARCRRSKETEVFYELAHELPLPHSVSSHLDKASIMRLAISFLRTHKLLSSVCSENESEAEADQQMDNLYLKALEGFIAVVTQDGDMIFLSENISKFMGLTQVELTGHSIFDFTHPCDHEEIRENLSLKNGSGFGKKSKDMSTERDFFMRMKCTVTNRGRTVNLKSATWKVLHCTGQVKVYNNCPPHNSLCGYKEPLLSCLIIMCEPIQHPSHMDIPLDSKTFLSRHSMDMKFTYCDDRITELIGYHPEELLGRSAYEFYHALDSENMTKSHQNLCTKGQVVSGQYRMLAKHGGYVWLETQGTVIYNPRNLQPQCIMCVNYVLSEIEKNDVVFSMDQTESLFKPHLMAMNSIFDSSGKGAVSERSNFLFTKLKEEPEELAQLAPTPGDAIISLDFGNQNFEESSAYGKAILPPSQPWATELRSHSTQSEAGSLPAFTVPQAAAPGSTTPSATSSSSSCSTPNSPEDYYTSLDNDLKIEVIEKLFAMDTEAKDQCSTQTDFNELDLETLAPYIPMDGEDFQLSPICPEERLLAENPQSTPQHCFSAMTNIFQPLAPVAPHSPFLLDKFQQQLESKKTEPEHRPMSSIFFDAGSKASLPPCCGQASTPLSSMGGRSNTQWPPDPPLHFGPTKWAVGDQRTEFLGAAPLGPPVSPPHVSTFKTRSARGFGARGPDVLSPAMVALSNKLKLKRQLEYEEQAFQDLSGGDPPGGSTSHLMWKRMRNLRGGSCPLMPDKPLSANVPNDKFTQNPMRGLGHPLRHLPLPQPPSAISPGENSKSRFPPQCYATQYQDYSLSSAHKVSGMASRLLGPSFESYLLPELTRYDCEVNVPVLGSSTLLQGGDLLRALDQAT
UniProt Q92793: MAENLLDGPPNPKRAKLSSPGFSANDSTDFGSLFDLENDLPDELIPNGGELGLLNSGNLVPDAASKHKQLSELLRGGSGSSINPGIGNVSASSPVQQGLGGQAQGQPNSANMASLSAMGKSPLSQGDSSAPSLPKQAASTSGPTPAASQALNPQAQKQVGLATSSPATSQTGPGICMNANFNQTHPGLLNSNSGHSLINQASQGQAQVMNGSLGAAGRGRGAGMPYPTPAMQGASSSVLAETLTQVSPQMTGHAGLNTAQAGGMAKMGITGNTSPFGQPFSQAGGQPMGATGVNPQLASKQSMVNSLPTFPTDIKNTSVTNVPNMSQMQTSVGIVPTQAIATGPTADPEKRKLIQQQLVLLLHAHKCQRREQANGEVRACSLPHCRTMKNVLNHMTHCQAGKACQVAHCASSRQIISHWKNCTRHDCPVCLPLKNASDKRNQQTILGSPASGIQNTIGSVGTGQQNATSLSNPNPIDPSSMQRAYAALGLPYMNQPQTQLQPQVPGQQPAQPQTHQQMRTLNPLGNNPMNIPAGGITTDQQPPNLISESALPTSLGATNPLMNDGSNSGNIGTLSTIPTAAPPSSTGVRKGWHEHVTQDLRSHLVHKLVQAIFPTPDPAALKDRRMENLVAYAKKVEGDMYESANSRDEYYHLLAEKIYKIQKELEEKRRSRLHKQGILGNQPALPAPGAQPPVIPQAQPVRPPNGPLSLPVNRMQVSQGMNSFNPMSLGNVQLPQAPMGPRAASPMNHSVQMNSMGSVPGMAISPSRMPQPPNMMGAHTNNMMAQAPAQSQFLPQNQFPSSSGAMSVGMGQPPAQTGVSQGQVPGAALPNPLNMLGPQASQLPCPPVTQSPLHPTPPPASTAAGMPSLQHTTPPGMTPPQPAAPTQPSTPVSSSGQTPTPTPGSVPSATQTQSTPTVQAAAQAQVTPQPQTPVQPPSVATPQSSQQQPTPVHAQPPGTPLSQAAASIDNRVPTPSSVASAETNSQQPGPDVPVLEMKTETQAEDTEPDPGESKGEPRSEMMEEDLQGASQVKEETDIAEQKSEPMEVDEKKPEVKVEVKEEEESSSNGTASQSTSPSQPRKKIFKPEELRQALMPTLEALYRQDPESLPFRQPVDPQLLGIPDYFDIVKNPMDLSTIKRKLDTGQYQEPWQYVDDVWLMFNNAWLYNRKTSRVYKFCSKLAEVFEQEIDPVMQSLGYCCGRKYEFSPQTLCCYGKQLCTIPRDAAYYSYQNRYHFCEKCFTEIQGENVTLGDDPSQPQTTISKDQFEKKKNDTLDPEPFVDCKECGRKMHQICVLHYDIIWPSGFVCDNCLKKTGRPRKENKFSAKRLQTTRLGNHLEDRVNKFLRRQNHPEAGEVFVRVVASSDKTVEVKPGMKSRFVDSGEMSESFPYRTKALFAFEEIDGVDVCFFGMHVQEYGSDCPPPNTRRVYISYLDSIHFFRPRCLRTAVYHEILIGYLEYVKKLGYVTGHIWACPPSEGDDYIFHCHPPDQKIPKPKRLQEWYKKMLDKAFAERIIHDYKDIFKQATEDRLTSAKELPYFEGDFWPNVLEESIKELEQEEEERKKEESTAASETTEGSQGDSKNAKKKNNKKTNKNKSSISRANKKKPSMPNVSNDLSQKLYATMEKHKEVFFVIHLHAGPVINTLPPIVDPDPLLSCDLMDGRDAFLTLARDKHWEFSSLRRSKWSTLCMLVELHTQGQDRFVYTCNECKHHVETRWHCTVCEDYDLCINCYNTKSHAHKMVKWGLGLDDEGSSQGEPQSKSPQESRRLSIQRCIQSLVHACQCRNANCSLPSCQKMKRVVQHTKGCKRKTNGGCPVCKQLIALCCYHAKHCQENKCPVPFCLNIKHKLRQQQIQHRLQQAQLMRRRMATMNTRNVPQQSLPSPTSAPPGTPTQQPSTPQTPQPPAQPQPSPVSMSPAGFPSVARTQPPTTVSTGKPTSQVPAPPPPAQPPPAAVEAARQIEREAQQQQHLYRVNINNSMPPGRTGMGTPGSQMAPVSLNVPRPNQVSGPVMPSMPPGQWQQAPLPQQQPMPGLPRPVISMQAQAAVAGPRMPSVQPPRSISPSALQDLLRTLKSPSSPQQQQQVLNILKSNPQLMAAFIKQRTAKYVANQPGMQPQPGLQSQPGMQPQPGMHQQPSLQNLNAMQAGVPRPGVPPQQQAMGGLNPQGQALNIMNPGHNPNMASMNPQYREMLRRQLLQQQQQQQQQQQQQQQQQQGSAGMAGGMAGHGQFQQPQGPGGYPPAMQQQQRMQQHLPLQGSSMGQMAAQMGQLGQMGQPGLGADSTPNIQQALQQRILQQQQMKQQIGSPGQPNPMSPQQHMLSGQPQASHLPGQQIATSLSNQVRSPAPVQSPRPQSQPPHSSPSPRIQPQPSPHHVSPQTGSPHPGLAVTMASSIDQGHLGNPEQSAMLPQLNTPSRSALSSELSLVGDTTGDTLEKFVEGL
UniProt Q09472: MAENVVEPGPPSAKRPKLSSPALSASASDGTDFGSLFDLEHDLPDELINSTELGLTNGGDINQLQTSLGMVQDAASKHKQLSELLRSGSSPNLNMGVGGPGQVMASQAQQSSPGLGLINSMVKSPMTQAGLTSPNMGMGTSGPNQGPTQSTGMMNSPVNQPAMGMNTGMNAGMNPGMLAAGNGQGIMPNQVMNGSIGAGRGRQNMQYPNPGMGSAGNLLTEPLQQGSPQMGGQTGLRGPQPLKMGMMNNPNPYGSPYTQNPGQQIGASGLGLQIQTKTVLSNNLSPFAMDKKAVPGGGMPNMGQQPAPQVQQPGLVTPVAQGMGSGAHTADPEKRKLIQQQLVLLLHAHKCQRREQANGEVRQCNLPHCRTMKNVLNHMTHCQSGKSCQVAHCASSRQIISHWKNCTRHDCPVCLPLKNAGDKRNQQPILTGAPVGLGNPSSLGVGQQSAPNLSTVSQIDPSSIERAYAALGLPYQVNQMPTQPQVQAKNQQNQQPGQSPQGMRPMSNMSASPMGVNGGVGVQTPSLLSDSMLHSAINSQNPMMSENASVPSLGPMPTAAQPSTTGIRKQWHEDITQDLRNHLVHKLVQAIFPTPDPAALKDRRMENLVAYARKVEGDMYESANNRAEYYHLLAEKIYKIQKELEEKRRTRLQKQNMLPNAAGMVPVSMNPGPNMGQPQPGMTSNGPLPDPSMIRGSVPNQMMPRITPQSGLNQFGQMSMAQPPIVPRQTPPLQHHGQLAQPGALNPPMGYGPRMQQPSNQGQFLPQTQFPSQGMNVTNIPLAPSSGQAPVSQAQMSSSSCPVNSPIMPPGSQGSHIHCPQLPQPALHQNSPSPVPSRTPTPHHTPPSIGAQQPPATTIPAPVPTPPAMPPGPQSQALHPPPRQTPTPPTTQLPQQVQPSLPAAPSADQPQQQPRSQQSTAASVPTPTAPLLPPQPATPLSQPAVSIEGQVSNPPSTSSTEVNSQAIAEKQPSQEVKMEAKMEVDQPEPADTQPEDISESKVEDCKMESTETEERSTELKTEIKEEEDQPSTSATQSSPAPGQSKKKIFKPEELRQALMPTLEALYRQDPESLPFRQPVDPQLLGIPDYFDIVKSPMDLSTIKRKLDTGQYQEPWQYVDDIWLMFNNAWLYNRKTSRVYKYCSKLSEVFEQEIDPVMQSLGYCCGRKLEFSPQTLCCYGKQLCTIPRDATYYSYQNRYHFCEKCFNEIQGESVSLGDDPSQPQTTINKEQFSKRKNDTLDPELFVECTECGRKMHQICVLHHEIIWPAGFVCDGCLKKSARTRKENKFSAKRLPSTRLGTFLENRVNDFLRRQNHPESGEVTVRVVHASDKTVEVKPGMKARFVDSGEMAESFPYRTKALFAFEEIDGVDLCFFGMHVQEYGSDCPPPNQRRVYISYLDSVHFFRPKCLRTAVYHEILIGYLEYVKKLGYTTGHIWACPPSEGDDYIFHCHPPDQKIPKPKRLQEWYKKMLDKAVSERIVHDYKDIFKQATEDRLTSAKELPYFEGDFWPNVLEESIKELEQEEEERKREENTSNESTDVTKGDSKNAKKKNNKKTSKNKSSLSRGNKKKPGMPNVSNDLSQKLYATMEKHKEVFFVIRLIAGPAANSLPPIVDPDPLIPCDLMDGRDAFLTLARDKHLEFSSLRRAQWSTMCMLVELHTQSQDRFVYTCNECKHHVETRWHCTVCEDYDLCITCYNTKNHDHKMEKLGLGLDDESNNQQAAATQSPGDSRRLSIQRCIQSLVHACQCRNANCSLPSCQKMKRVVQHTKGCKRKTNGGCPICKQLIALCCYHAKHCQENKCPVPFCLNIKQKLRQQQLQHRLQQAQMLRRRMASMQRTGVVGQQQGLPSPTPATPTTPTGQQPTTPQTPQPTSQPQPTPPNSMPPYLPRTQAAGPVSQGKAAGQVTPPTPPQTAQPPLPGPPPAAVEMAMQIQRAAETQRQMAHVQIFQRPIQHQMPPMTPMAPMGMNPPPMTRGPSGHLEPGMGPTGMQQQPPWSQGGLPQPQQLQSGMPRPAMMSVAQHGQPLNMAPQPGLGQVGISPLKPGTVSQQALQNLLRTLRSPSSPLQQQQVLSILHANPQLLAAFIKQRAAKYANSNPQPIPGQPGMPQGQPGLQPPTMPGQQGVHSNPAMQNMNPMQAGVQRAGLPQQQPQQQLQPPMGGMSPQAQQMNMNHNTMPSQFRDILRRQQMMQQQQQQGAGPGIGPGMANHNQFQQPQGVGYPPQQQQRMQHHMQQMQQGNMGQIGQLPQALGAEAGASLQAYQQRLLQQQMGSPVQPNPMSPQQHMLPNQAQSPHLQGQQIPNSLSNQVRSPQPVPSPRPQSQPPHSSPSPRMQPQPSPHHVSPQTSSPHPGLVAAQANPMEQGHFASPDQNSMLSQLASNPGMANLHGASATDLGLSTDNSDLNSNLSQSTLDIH

The target in experiment [1] is ectopic wild-type (K3) human HIF-2α, V5- and HA-tagged, in HT1080 knockdown/rescue cells (human) (UniProt Q99814). Kind of experiment: sequential chromatin immunoprecipitation (Re-ChIP); HT1080 knockdown/rescue cells under control, hypoxia or low glucose; first ChIP with anti-V5 (ectopic HIF-2α) or anti-HIF-2α (endogenous), second ChIP with anti-Cbp; qPCR of HIF-responsive regulatory regions of HIF-2 target genes. Background: Quantitative PCR measures a nucleic acid by following its amplification.

Experiment [2] has as its target endogenous HIF-2α of HT1080 cells (human (endogenous in HT1080)) (UniProt Q99814). Described as above.
Experiment [3] concerns the target ectopic arginine-substituted mutant (R3) human HIF-2α, V5- and HA-tagged, in HT1080 knockdown/rescue cells (human) (UniProt Q99814). Kind of experiment: co-IP; ectopic K3 or R3 HIF-2α precipitated from stably transformed knockdown/rescue HT1080 cells after 0, 4, 16 hr hypoxia (1% O2) or 0, 2, 24 hr low glucose (1 mM); blots for endogenous Cbp or p300.
The target in experiment [4] is ectopic wild-type (K3) human HIF-2α, V5- and HA-tagged, in HT1080 knockdown/rescue cells (human) (UniProt Q99814). Described as above.

For “endogenous Creb binding protein (Cbp) of HT1080 cells (from UniProt Q92793 1-2442)”, the binding result in experiment [1] was “binds”; in experiment [2], “binds”; in experiment [3] it was “no binding”; in experiment [4] it was “binds”.

In the case of “endogenous p300 of HT1080 cells (from UniProt Q09472 1-2414)”, the binding result in experiment [3] and in experiment [4] was “binds” each time.

The values above are taken from publication PMC5744998.
